Screen size: about 150,000 compounds; about 540 (0.36%) showed an effect of 50% or more. This is one part of the list.
System: Plasmodium falciparum
Experiment: Primary screen in NF54 nanoGlo assay, in single point, at 2uM, 72h; a lower Z score goes with more inhibition
Type: functional, Erythrocyte
Settings: timepoint 72 hour

Structure (SMILES)	% Inhibition	Z score
COc1ccc(CN2CC[C@H](NS(=O)(=O)N(C)C)[C@@H](O)C2)cc1Cl	-4%	0.42
CCC1(CC)C(NC(=O)C2CCCN2C(=O)c2ccccc2O)CC1OC (stereo not given)	-1%	0.13
Cc1nc2cc(OCc3cc(C(=O)N4C[C@H]5CC[C@H]4C5)no3)ccc2s1	-4%	0.67
CCc1onc(C)c1NC(=O)NCC1CCc2ccccc2CC1	-5%	0.83
Cc1cccc(C(=O)N2CCOC[C@@H]2CC(C)C)n1	-8%	1.03
COC[C@H]1CCN1C(=O)Nc1csc(C)c1	-10%	0.97
CCN(Cc1cccn1-c1cccnc1)C[C@H]1CCCN(CCc2cccc(F)c2)C1	-11%	1.34
CCN1C[C@H](NC(=O)c2ccc(C)nc2C)[C@@H](OC)C1	-8%	1.54
O=C1C2C3C=CC([C@@H]2C(=O)N1Cc1cccnc1)C31CC1 (stereo not given in full)	-13%	1.61
Cc1cnccc1NC(=O)CNC[C@H]1CCCO1	-4%	0.56
Cc1cc([C@H](NCc2nnnn2C)c2ccccc2Cl)ccc1F	-2%	0.29
N[C@@H](c1ccc2c(c1)CCO2)c1cc(Cl)ccc1Cl	0%	-0.02
CC1(C)C2CC=C(COCC(O)CNCc3ccccc3)C1C2 (stereo not given)	0%	0.01
Cc1nc2c(C)cccc2cc1C(=O)N[C@H]1CCOC[C@@H]1OCCO	-15%	1.42
CCC1(CC)CNC(=O)[C@H]1NC(=O)Cc1cn2cc(F)ccc2n1	4%	-0.66
CCn1c(CNS(=O)(=O)c2ccccc2C)nc2cccnc21	1%	-0.21
Cc1ccc(CNCc2nc3c(s2)CCCC3)s1	2%	-0.24
Cc1oc(C)c(C(=O)N2CCC[C@H](n3cccn3)C2)c1C	3%	-0.45
N#Cc1cccc(-c2nnc(N3CCC4(CCCCC4)CC3)n2[C@H]2CCOC2)c1	-5%	0.89
CC1CC(CN2CCCC(c3ccncc3)CC2)CCO1 (stereo not given)	2%	-0.24
NC(=O)Cc1nc(C[C@H]2CCCOC2)n(C2Cc3ccccc3C2)n1	-3%	0.59
Nc1c2c(-c3cccc(Cl)c3)nc(NCc3ccccn3)nc2nn1-c1ccccc1Cl	0%	0.06

Structure (SMILES)	% Inhibition	Z score
Cc1c(CNC(=O)N2CCCN(C)C(=O)C2)oc2ccc(F)cc12	-11%	1.12
Cc1ccc(C)c(S(=O)(=O)NCc2ccc3c(c2)CCN3C(=O)C(C)C)c1	-1%	0.15
CCOC1CC(NC2CCCn3nc(C(C)C)nc32)C1(C)C (stereo not given)	-8%	1.28
CN(Cc1cscn1)C(=O)c1cccc(-c2noc(C3CC3)n2)c1	-6%	0.85
O=C(NCc1ccc2c(c1)OCO2)c1csc(CN(CCC(c2ccccc2)c2ccccc2)Cc2ccc3c(c2)OCO3)n1	-3%	0.56
Cc1ccc(Cl)cc1NC(=O)CC(=O)N1CC[C@@H]1C	-5%	1.01
CN(Cc1cccc(N(C)C)c1)C(=O)c1ccncc1Br	-6%	0.69
Cc1cc(S(=O)(=O)[C@H]2CS(=O)(=O)C[C@@H]2NCC(C)C)ccc1F	2%	-0.21
CCc1nc(N(C)Cc2ccccc2)c2onc(-c3ccc(C)cc3)c2n1	-8%	1.07
NC(=O)C1CCN(C(=O)c2cc(=O)c(OCc3ccc(Cl)cc3)c[nH]2)CC1	-2%	0.34
Cc1ccsc1CN(Cc1ccc(F)cc1)C(=O)CN(CC(C)C)C(=O)Cc1cccs1	-1%	0.1
Cc1cc2nc(N3CCOCC3)n(CC(=O)Nc3cc(F)cc(F)c3)c(=O)c2n1C	-18%	1.91
CC(C)(C)OC(=O)Nc1ccc(N)cn1	-2%	0.23
Cc1ccc(F)cc1C(=O)N[C@H]1CCCS(=O)(=O)C1	-9%	1.42
CCOC(=O)C(C)(C)N(C)C(=O)[C@@H]1CCCO1	-5%	0.66
Cc1ccc(F)c(OCc2nc([C@@H](N)CC(C)C)no2)c1	-12%	2.08
c1cc2cn[nH]c2cc1CN1CC[C@H](N2CCOCC2)C1	4%	-0.43
CCN1CCc2cc(OC)c(OC)cc2C1C(NC(=O)c1ccccc1Cl)C(C)C (stereo not given)	-2%	0.25
CC1(C)CCCC(C(=O)N2C[C@@H](CO)[C@H](c3ccsc3)C2)C1 (stereo not given in full)	-6%	1.21
COc1ccc2c(c1)C(N1CCN(C(=O)c3ccccc3Cl)CC1)=Nc1cc(C(F)(F)F)ccc1O2	-4%	0.47
CCCC(=O)N1CCC(n2cnc3ccccc32)CC1	-20%	2.27
CC(C)c1ccc(-n2nc3nc(N4CCCC4)nc(-c4ccccc4)c3c2N)cc1	-11%	1.43

Structure (SMILES)	% Inhibition	Z score
C[C@H]1CCc2sc(C(=O)N(C)Cc3nnc4n3CCC4)cc2C1	-6%	0.81
CC(C)(C)[C@H]1OCC[C@@H]1c1noc(-c2ccnc(-c3ccco3)c2)n1	-5%	0.58
O=c1[nH]c(C2CC2)ncc1-c1ncnn1CC(F)(F)F	-2%	0.32
CN1CCN(C[C@@H](O)Cn2c3c(c4cccc(Cl)c42)CCCC3)CC1	33%	-3.78
O=C(Nc1ncccc1O)[C@@H]1CC=CCC1	-7%	1.19
Cc1noc2ncc(NC(=O)c3cnc(-c4ccsc4)s3)cc12	-6%	0.73
Cn1c(=O)cnn(-c2cc3c(cc2F)OCC(=O)N3CC2CC2)c1=O	-9%	1.24
Cc1nc(C)c(-c2csc(COCc3ccccc3)n2)o1	-14%	1.41
O=S(=O)(c1ccc(F)c(F)c1)N1Cc2cncnc2C1	-19%	3.31
Nc1ncncc1C(=O)NCc1cccc(CN2CCCCCC2)c1	-7%	0.84
CC1(C)[C@H](Cc2cc(CN3CCN(c4ccccc4)CC3)on2)C[C@@H]1NC1CCC1	17%	-1.99
CCn1nccc1-c1nc(N2CCOCC2)n(C)n1	-7%	0.93
CCCOc1ccc([C@H]2C(=O)N(C3CCCCC3)CC(=O)N2CCCOCC)cc1OC	15%	-1.47
O=C(NCCOCCc1ccccc1)C(=O)Nc1c(F)cccc1F	-10%	1.89
COc1ccccc1N1CCN(C(=O)C(F)(F)C(F)(F)C(=O)N2CCN(c3ccccc3OC)CC2)CC1	-10%	1.55
Cc1cc2nc3n(c(=O)c2n1CC(=O)NCCc1ccc(Cl)cc1)CCCC3	-11%	1.22
CCn1nc(-c2cccc([C@H](C)N(C)C)c2)nc1N(C)C	-7%	0.93
OC1=Nc2c(ncn2-c2ccc(OC(F)(F)F)cc2)[C@@H](c2cccnc2)C1	28%	-3.18
CN(C)C(=O)c1cncc(Br)c1	-4%	0.38
CC(=O)N[C@H]1CCN(C(=O)N[C@H](C)C(c2ccccc2)c2ccccc2)C1	-8%	0.75
O=C(Cc1cccs1)N1CC[C@@H](c2ccccc2)S(=O)(=O)CC1	4%	-0.65
CC(C)(C)OC(=O)NCc1ccccc1O	33%	-4.2

Structure (SMILES)	% Inhibition	Z score
CC(C)Oc1cccc(N(C)Cc2ccsc2)n1	-9%	0.99
C#CCCC1(CCC(=O)N2CCC(C(=O)O)C3CCCCC32)N=N1 (stereo not given)	-5%	0.74
COc1ccc(F)c(CNC2(c3nccs3)CCCC2)c1	5%	-0.62
Cn1c(=O)n([C@@H]2CCN(C(=O)COc3ccccc3)C2)c2ncccc21	-13%	1.72
CC(C)N1CCNC(=O)[C@@H]1CC(=O)N1CCCCCCCC1	-6%	0.91
NC(=O)C1CCN(C(=O)c2cc3c(s2)CCCCCC3)CC1	-3%	0.43
C#CCNC(=O)[C@H](C)N1CCN(C(C)C)CC1	-9%	0.88
O=C(N[C@H]1CCN(Cc2cscn2)C[C@@H]1O)c1ccc(-c2ccco2)cc1	-17%	3.24
O=C1CCCN1Cc1ncnn1Cc1ccc2c(c1)OCO2	-4%	0.57
O=C(CN1C=CCC=C1c1nc(-c2ccc(Br)cc2)cs1)c1ccccc1	65%	-4.25
Cc1ccc(CNC(=O)c2c(-c3ccncc3)noc2C)o1	1%	-0.25
CCOC(=O)[C@@H](NS(=O)(=O)CC1CCCCO1)C(C)(C)C (stereo not given in full)	-4%	0.5
O=c1c2ccoc2ccn1Cc1ccc(OC(F)F)cc1	-8%	0.89
O=C(Cc1n[nH]c(-c2cccnc2)n1)NCCc1ccccc1	8%	-0.94
CCc1ccc(-c2cc3n(n2)C[C@@](C)(C(=O)NC2CCCCC2)N(CCN(CC)CC)C3=O)cc1	9%	-1.36
CCO[C@@H](C)c1nc(Cn2ncccc2=O)cs1	-1%	0.11
O=C(Cc1ccccc1Cl)Nc1cc(-n2ccnc2)ncn1	-7%	1.18
COCCOCc1nc([C@@H]2CCCCN2C(=O)Nc2ccc(F)cc2F)no1	-10%	1.27
O=C(NCc1ccc2c(c1)OCO2)c1cc(-c2ccccc2)nc2ccccc12	-5%	0.71
